± gives the standard deviation of the averaged measurements. The list shows a part of the results.
What follows are sequences tested on PfAP2-EXP AP2 domain (GST-tagged) (assay: gcPBM binding intensity (ln(normalized median fluorescence intensity)); higher = stronger DNA binding).
Method in brief: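 DNA-binding domains from P. falciparum, fused to GST and produced in E. coli, were put on an Agilent 4 × 180k double-stranded probe array for 1 h in 1× PBS holding 1% milk, 0.2 mg/ml BSA, 0.5% salmon testes DNA and 0.03% Triton X-100. Probes were primer-extended, 36 bp long and drawn from intergenic genomic regions, with negative controls included. After Alexa488 anti-GST antibody detection and a 488 nm scan, binding intensity was set as the highest Masliner-normalised natural-log median intensity across replicate spots of either probe orientation.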

| Sequence | gcPBM binding intensity (ln) |
| --- | --- |
| ATATGTATGTATGTATGTACTTATTTATTTATTAAT [XGTACX_site8018] | 8.35 ± 0.2 |
| TACATAAATTAAAACACACACACACTAATAAAAAAA [CACACA_site8712] | 8.77 ± 0.64 |
| ATTCAATATATATACACACACACTTTTAATAATTAA [CACACA_site3770] | 8.57 ± 0.38 |
| GTTTTATTTTGTTTCTATTTGACACATGTGATTATT [CACACA_negctrl_site1246] | 9.12 ± 0.42 |
| CATATATATAATTATTCACACAATAGTTAAAAGTAT [CACACA_site5302] | 8.63 ± 0.39 |
| AAAAAATTATATAAATGTACATTTTGGCTAGACATG [XGTACX_site5977] | 8.66 ± 0.51 |
| TTTTTTTTTGAATATTGTACATATATATTACTTTTA [XGTACX_site5520] | 8.46 ± 0.43 |
| GATATACAATTTAAGTGTACTATAATAAAATATATA [XGTACX_site3013] | 8.26 ± 0.3 |
| ATAAAAAAATATAAATGTACATATATATATATATAT [XGTACX_site5620] | 10.2 ± 0.2 |
| ATTTATCTATATATATGTACATATTATTTTTGTGGT [XGTACX_site7390] | 8.79 ± 0.32 |
| TATATTAATTCGTTTTGTACACACATAATGAATAAT [XGTACX_site4618] | 8.34 ± 0.23 |
| ATAAGCATCTTTTGTGTGCACATAACAAAAAAAAAA | 8.74 ± 0.22 |
| ATTAAATAAAATCATGCACACAATATATATTTTAAG [CACACA_site2495] | 8.46 ± 0.34 |
| TTTAAAATATTGTATTGTACGCAATAAAAAATACCA [XGTACX_site182] | 8.6 ± 0.26 |
| TCTAACATATCTTTAATACACACTTAAAAAAGTACT [CACACA_site652] | 8.31 ± 0.3 |
| ATAGATATACATATCACACATATATATATATATATA [CACACA_site4985] | 10.2 ± 0.23 |
| AAATACATATATACATGTACATAAATATATATATAT [XGTACX_site5367] | 9.76 ± 0.38 |
| TAAGGTAGTTCTGTATCACACACATATATATATATA [CACACA_site8693] | 10.1 ± 0.26 |
| AATCCATTCTATTTTTTACACACGTATGTAAATATT [CACACA_site8860] | 8.71 ± 0.55 |
| TGAGAAAGCGCATATTGTACTATATATTTTAACCAC [XGTACX_site4098] | 8.9 ± 0.54 |
| GAAAATAATGTTACATGTACGAATATGTAACTATTG [XGTACX_site6833] | 8.48 ± 0.35 |
| AATATATATGGACATGCATGGACATAATAATCTATT [TGCATGCA_site838] | 8.89 ± 0.47 |
| CATAAAAATGTATCAAGTACACATTTATTTATCCAT [XGTACX_site152] | 8.38 ± 0.23 |

| Sequence | gcPBM binding intensity (ln) |
| --- | --- |
| TACAGATAAAAGTACACACACACACCGATATATATA [CACACA_site4675] | 8.86 ± 0.38 |
| GTATAACACAAGTGAAGTACAGGGGTAAACATTTAT [XGTACX_site3203] | 8.91 ± 0.59 |
| ATAAAAAAATATGTAAACATATATATGTATTTATGT [CACACA_negctrl_site1517] | 8.36 ± 0.45 |
| TTAAAATAAAGAGCAGTGCGCATATTTTGTTATTAT [GTGCAC_site9753] | 8.56 ± 0.29 |
| TTTTTATATTTTATTAGTACTTATTATATATATAAT [XGTACX_site4900] | 8.56 ± 0.34 |
| AAACAATTTTTATTTTGTACATAACAATATATTTAT [XGTACX_site1375] | 8.4 ± 0.18 |
| TTTTTTTTTAAAGAAAATAAAAATATGTACTTGACA [CACACA_negctrl_site1113] | 8.28 ± 0.33 |
| TTATTTGTTTAATATGCATGCTAAAAGGGTTGATGT [TGCATGCA_site581] | 9.36 ± 0.11 |
| ATTTTACATATTTGCACACATATATTTATATACATA [CACACA_site854] | 8.89 ± 0.4 |
| AATATAAAAATGCACACACACAAAAAAAAAAAAAAA [CACACA_site6546] | 8.37 ± 0.39 |
| GAGTAAAACAAATATACACACCATAAAGTTATAAAA [CACACA_site5008] | 8.63 ± 0.47 |
| AATTTAAATTCATCACGTACATACGTGAATATACAC [XGTACX_site5220] | 8.77 ± 0.32 |
| ATGTAACACATATTTGGTACAGATAGATAAAAGTAT [XGTACX_site8291] | 8.92 ± 0.45 |
| TATATATATATATTCACACATAAAAATAAAATAAAA [CACACA_site4774] | 9.95 ± 0.32 |
| GTATAATATATTTATAGTACATAATTATTTATAAAT [XGTACX_site1826] | 8.32 ± 0.14 |
| TTTTTAAATAACCTATATATTATTATGAAACATAAA [CACACA_negctrl_site916] | 8.02 ± 0.42 |
| ATATATATATATGTGTGTACTTATTTATTTATTTGT [XGTACX_site549] | 10 ± 0.26 |
| TAATAAATCCTATATAGTACATATATGCAAGTATGT [XGTACX_site3955] | 8.75 ± 0.24 |
| TTTTCTTAATATTTATGTATATATATAATATGATAT [TGCATGCA_negctrl_site572] | 8.37 ± 0.49 |
| AAAAATATAAACTGCACACACAAAAAAAAAAGAGAA [CACACA_site1367] | 8.87 ± 0.59 |
| ATTGATTTTTAATATACACACATAAGTACCACAAAA [CACACA_site339] | 8.77 ± 0.38 |
| ACATTAATATAAAGCACACATATATATAATATATAT [CACACA_site508] | 8.59 ± 0.28 |
| TATAACATATTTATATATGACATTATCTATTCATTT [CACACA_negctrl_site864] | 8.21 ± 0.42 |

| Sequence | gcPBM binding intensity (ln) |
| --- | --- |
| CATGATATATAAATATGTACATATATATATATATAT [XGTACX_site1760] | 10.2 ± 0.23 |
| TAATAATAATATAAAATACACACCTATTATTTTTAC [CACACA_site4003] | 8.28 ± 0.41 |
| TTAATATTGTATCCAAGTACACAAATTATTATATTT [XGTACX_site8067] | 8.29 ± 0.092 |
| ATATTATGTGATTGTGCACACTGGAGATTTTTTTTA [CACACA_site1453] | 8.96 ± 0.057 |
| CCCGTAAATACAAAAAGTACAAAAGTTCATCTTATA [XGTACX_site1154] | 8.65 ± 0.5 |
| CAATATTATTATATTTGTACACATGCGTATTTTTTA [XGTACX_site4154] | 8.51 ± 0.43 |
| ATATAAATATAAACATGTACATATATATATATATAT [XGTACX_site2824] | 10.3 ± 0.79 |
| GAAACGTTTTTGAGTAGTACACACACAATAAGGATG [XGTACX_site6809] | 9.02 ± 0.45 |
| ACGTTTTATTTTTATTGTACTCACATTGAAATGAAT [XGTACX_site6094] | 9.1 ± 0.39 |
| ATTTTTTTATAAAATTTTTTATATATTAAATATTAT [CACACA_negctrl_site135] | 8.16 ± 0.47 |
| TTTGTAATAACATATGCATGTTCAAAAAATAAAATA [TGCATGCA_site817] | 8.4 ± 0.36 |
| AAAATTGTGCTTTCACGGACACAAGATCGAAATAGA [XGTACX_site4068] | 8.74 ± 0.36 |
| ATATATTTATACATTTGTACATATACATATTTCTGA [XGTACX_site3982] | 8.6 ± 0.35 |
| ATTTTTTTTGTAAAAGTGCATATATATATATATATA | 10.4 ± 0.35 |
| AAATTTATATAAAACAGTACAATTAAAAAAAAAATA [XGTACX_site8015] | 8.54 ± 0.49 |
| CTTATACTTCTACATCGTACAAAAGATGGTATAATT [XGTACX_site2698] | 8.52 ± 0.38 |
| AAATTATAAGTAAAAAGTACTTAATATATAATAAAC [XGTACX_site6065] | 8.77 ± 0.31 |
| AAAAAAAAAAAAAATAGTACGTAACTATAATTTCCT [XGTACX_site2457] | 8.31 ± 0.2 |
| TATAATTTTTTTTGGGTGCTTGGGTAAATTTTATTA | 8.92 ± 0.67 |
| TAACTTAAATAATACATACACACATGTACATACAGA [CACACA_site1594] | 8.53 ± 0.3 |
| AATTATATATTATCATGTACAAATATAGTAATACAA [XGTACX_site6845] | 8.47 ± 0.4 |
| ATACGTATATAATATACATGCATATATAGCACATAC [TGCATGCA_site376] | 8.905 ± 0.064 |
| ATAAAAAAAAAAAAAAATGAAGCATCACCGTGTAAT [XGTACX_negctrl_site288] | 8.53 ± 0.54 |

| Sequence | gcPBM binding intensity (ln) |
| --- | --- |
| CACGAAAAAAAAAAATGTACATAAAAATATGATACA [XGTACX_site2536] | 8.47 ± 0.37 |
| GAAAGAGAAATATATACACACATATTTATATTTTTA [CACACA_site2066] | 8.09 ± 0.33 |
| AAAAAAAAAAAAAAAAAAAAAGGACGGATGGATGGA [GTGCAC_negctrl_site527] | 9.14 ± 0.18 |
| TCTCATTTCAACAACAGTACATATCTATCTGTGTAT [XGTACX_site6897] | 8.52 ± 0.3 |
| CCTAATTTTTTTAGTTGTACTTTTTTTTTTTTTTAT [XGTACX_site7948] | 8.47 ± 0.35 |
| GCCTATATGTTTAGTTGTACTCCTAATATTATTTGT [XGTACX_site6060] | 8.96 ± 0.22 |
| CAAATTATTTCGAGGTGTACTTTTTTATATTATATT [XGTACX_site8309] | 8.68 ± 0.39 |
| TATATAAATGGACACACACACACCTTATAATTATTA [CACACA_site6093] | 8.73 ± 0.53 |
| AATGTGTTCATATATGCACACGCATATATATTATTG [CACACA_site9274] | 8.57 ± 0.27 |
| TTTATAAATTGACACACACACATGTGAACATAAAAA [CACACA_site6978] | 8.68 ± 0.42 |
| TTTTTTTTTTTTTAAATAATCATACATGTGAAATTG [GTGCAC_negctrl_site328] | 8.15 ± 0.49 |
| ATCATTTATTTTTTAAAAGTATATATATATATATAT [CACACA_negctrl_site220] | 10.1 ± 0.37 |
| TTAATAAAAATATATCCACACACATATATATATATG [CACACA_site8091] | 8.45 ± 0.33 |
| TTTTGACATTAACTTAAAAAATAAATAATTATAAAA [XGTACX_negctrl_site552] | 8.14 ± 0.44 |
| AAATATAAGTTTTATTGTACATTATATAGCATATTT [XGTACX_site6618] | 8.29 ± 0.37 |
| ACATATTATAACATATGTACATATATATATATATAA [XGTACX_site5567] | 8.57 ± 0.2 |
| TATCATATAAAACATGCACACATATGTACTCTTATA [CACACA_site9249] | 8.77 ± 0.31 |
| CGTTCTATTTAGATATGTACTTAAATATATGATCAT [XGTACX_site2936] | 8.31 ± 0.35 |
| AAAAAATAAGATTGTACACACATAAATTCTTTGTCA [CACACA_site2089] | 8.49 ± 0.45 |
| TTATAAAACACAAAATGTACAAAAAATTATAATTAA [XGTACX_site6859] | 8.68 ± 0.38 |
